From the supplement of paper PMC12217912
The list shows a part of the results. The full chains were built here from the parent and the listed change. Values near 0.05 are background.

B1: TEV protease; numbered along this chain (parent)
chain: MGESLFKGPRDYNPISSSICHLTNESDGHTTSLYGIGFGPFIITNKHLFRRNNGTLVVQSLHGVFKVKDTTTLQQHLVDGRDMIIIRMPKDFPPFPQKLKFREPQREERICLVTTNFQTKSMSSMVSDTSCTFPSGDGIFWKHWIQTKDGQCGSPLVSTRDGFIVGIHSASNFTNTNNYFTSVPKNFMELLTNQEAQQWVSGWRLNADSVLWGGHKVFMVKPEEPFQPVKEATQL

Variants of: B1
Experiment: raw area under fraction-flipped curve 0-4 h after induction (AUC4h, not background-subtracted), DNA-recorder readout of cleavage of the substrate (dimensionless); higher = more cleavage of the substrate by the protease variant
Details: temperature: 34 °C; time window: 0-4 h after rhamnose induction
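Further: Bxb1 expression induced with 0.2% (w/v) L-rhamnose at OD600 near 0.5, cultures sampled hourly, flipped fraction per protease–substrate barcode pair counted by paired-end Illumina sequencing.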

Variant	area with substrate ENLYDQS	area with substrate ENLYEQS	area with substrate ENLYHQS	area with substrate ENLYIQS	area with substrate ENLYMQS	area with substrate ENLYNQS	area with substrate ENLYPQS	area with substrate ENLYRQS	area with substrate ENLYKQS	area with substrate ENLYLQS	area with substrate ENLYQQS	area with substrate ENLYSQS	area with substrate ENLYVQS	area with substrate ENLYWQS	area with substrate ENLYGQS	area with substrate ENLYTQS	area with substrate ENLYYQS
T181W	0.0604	0.0606	0.0663	0.0818	0.0573	0.0604	0.0491	0.0465									
T55R		0.0592	0.0594		0.0934	0.0868	0.0454	0.0615	0.0436	0.0819	0.0447	0.0776	0.0846	0.0818			
R109M		0.0552	0.0709		0.08							0.0619			0.0673		
K90E		0.0588	0.0205		0.0753	0.0585	0.0697	0.0618	0.0889			0.0802		0.0731	0.0571		
G214L	0.0602	0.0633	0.0694		0.0603	0.0651			0.0682	0.047	0.0372	0.0557	0.0657				
G214H	0.0551						0.0523					0.0578			0.0558	0.101	
M188K	0.0477	0.052	0.066		0.0598	0.0651	0.0744	0.0524	0.0665	0.0648	0.0707	0.0837	0.147	0.0779		0.0808	0.067
M188V	0.0644		0.0468	0.142		0.0675	0.0606	0.0584					0.0474		0.0504		
M188G	0.0651	0.0718	0.0653	0.11	0.092	0.0754	0.0598	0.0422	0.0586				0.165	0.0619	0.0586		0.0603
F187V	0.0644	0.0682	0.0634			0.0723			0.0215			0.0695					
F187K	0.0535		0.0517			0.0413		0.069	0.0638		0.0443	0.0508		0.0501			
P89G		0.0715	0.0719					0.05	0.0301			0.076	0.115	0.0729	0.0646	0.0789	0.056
P89D		0.0584															
R51T		0.0471	0.0815					0.0596					0.205				
H62P		0.0611	0.0622		0.0728				0.0491				0.0799	0.0836	0.0682		
P93G		0.0654	0.0624		0.084	0.0691	0.0781					0.0779	0.0499	0.0812	0.059	0.0755	0.056
A232D	0.0544		0.0572	0.139		0.0717	0.0613		0.0583		0.0664		0.142	0.102		0.0865	0.0378
A232I	0.0624		0.0677	0.119	0.086	0.0771			0.0684		0.0638			0.0893			
V210W	0.0439	0.047				0.0718	0.0842	0.0395	0.0597	0.0886	0.0467	0.0679			0.0583		0.0606

Variant	area with substrate ENLYDQS	area with substrate ENLYEQS	area with substrate ENLYHQS	area with substrate ENLYIQS	area with substrate ENLYMQS	area with substrate ENLYNQS	area with substrate ENLYPQS	area with substrate ENLYRQS	area with substrate ENLYKQS	area with substrate ENLYLQS	area with substrate ENLYQQS	area with substrate ENLYSQS	area with substrate ENLYVQS	area with substrate ENLYWQS	area with substrate ENLYGQS	area with substrate ENLYTQS	area with substrate ENLYYQS
S201T	0.0539	0.077					0.0791	0.0605	0.0924		0.0853	0.0869		0.0574	0.0726		
L205P	0.066	0.0553	0.0478	0.0447		0.0475	0.035		0.0479							0.0531	0.0524
E107T		0.0774	0.051	0.162	0.116		0.0632	0.0929	0.0538					0.0577	0.0716	0.0794	
W199T	0.0593	0.0513	0.0392	0.0613	0.062	0.067	0.0678	0.0633				0.0675	0.0799	0.057	0.0513	0.0626	
F218E	0.0541	0.064	0.0542	0.0818	0.0727	0.0627	0.063	0.0551	0.0629	0.0666	0.0615		0.104	0.0602	0.0541		
E195I	0.0724		0.0576	0.0908		0.0699		0.0604			0.0527		0.118			0.0773	0.0515
P9T		0.062				0.0663	0.0801		0.0654			0.0983					0.0347
P9S		0.0669	0.0769		0.0929	0.071	0.0696	0.0709	0.0622					0.111	0.0671	0.0678	0.0647
G213I	0.0578	0.0591	0.0547	0.0568	0.0795		0.0485				0.0568			0.0535	0.0556		
G213P	0.0306	0.0472					0.0603										
P94H		0.0645	0.069		0.0649	0.0766	0.0749					0.0684	0.01		0.067		
Q227H	0.0587	0.0741				0.0609		0.077	0.0623	0.133	0.0484				0.0738		0.0551
N193F	0.0646		0.0671		0.0851		0.0702		0.0751					0.0564	0.054		
N193H	0.0663	0.0751	0.0711		0.0047	0.0809			0.0616								
H143Q		0.0612	0.0572	0.0779	0.0415	0.0553			0.0597		0.0433	0.0537	0.0595		0.0455	0.0537	0.0516
Q197L	0.0557	0.0793	0.0608	0.132		0.0783	0.0777	0.0626	0.0499	0.105				0.0823	0.0522		
Q197H	0.0646	0.077	0.0598		0.0788		0.063	0.0714	0.058		0.0707		0.107				
Q75L		0.0727													0.0816		
Q75S		0.0613	0.0752		0.0676	0.0575	0.0649	0.0575	0.0635	0.0804	0.0577	0.0657	0.0858		0.0734	0.0598	0.053
